The supplement of paper PMC4466236
Whole data set: some 33,000 sequences, median “E-score (dimensionless, -0.5 to 0.5)” near -0.058, cut for the highest 2% near 0.35. This is one part of the list.

The sequences below were run on MvaT (assay: PBM 8-mer E-score (mean of HK and ME arrays) (E-score (dimensionless, -0.5 to 0.5)); higher = stronger relative binding preference; most listed sequences are background and not binding sites).
Outline: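 Reported values are rank-based E-scores, taken as the mean of two universal arrays and parsed with a custom script. Each 8-mer score falls between -0.5 and 0.5. The arrays, ME and HK, were double-stranded 60-mers with a constant 25-mer primer region and a variable 35-mer region covering all 8-mers. They were probed, by an earlier protocol, with full-length P. aeruginosa MvaT carrying an N-terminal glutathione S-transferase fusion.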

In order of falling “PBM 8-mer E-score” value:
1. ATGTTAAT  0.39
2. ATTTTACA  0.371
3. CTTTTAAA  0.361
4. ATATTTAC  0.36
5. GGAATATA  0.329
6. ATACTAAA  0.328
7. GTAGTATA  0.319
8. AATAAGAA  0.318
9. ACGTATAA  0.299
10. ACTATCAT  0.286
11. ATTCTAAA  0.284
12. AAAGAATA  0.269
13. GCCATTAA  0.264
14. GCGTTATA  0.252
15. AGTAACAA  0.232
16. CGAGTTAA  0.222
17. GTGTGTTA  0.219
18. ACTAAAGT  0.216
19. AATCTAAT  0.214
20. ACTATCCA  0.184
21. AATTGGTA  0.178
22. AGATTAAA  0.178
23. AGTGTTAC  0.172
24. ATCAATAG  0.172
25. AACGTAAT  0.166
26. GAATTTGC  0.153
27. CGTATATC  0.143
28. AGTTCACA  0.141
29. GGCTTTAA  0.135
30. AAATGGCA  0.135
31. CATAAAGA  0.134
32. CTAGAGTA  0.132
33. ACACAAAC  0.128
34. TAGAGACA  0.123
35. ATCCTGTA  0.119
36. ACGACAAA  0.111
37. TATTTGGA  0.11
38. ATTACCTG  0.103
39. AAAACACC  0.0822
40. AATTCGTC  0.0806
41. ATAGGACA  0.0602
42. TCAATCAA  0.058
43. ATAAGGGA  0.0576
44. CATAGGAA  0.0569
45. AATACCGT  0.0534
46. TCCTAACA  0.0526
47. CCGAATCA  0.0511
48. AGCAAATG  0.0498
49. TACCACAA  0.0498
50. CTACGAAA  0.0454
51. TCAGTACA  0.0419
52. AGACTTCA  0.0386
53. AAAAGTGA  0.0292
54. CCACGTTA  0.014
55. TACGTGCA  0.0131
56. ACCGCAAC  0.00986
57. AAACGGCT  0.00649
58. AGCCAAAC  -0.000144
59. GAGTCATA  -0.0177
60. CCATTAGC  -0.0177
61. CAACGGAC  -0.0222
62. ACAGTCCC  -0.0231
63. CATGCAAG  -0.0275
64. CGACAATC  -0.0278
65. AGTACTCG  -0.0302
66. AGGTTAGA  -0.0314
67. CAATCGGG  -0.0353
68. AAGAGTCT  -0.0411
69. ACCGCATG  -0.0413
70. AGTCTTCC  -0.0423
71. TCCCGACA  -0.0439
72. TAGGGGAA  -0.0502
73. CCGCGGAA  -0.0513
74. ATGGACCA  -0.0532
75. CGCGTCAA  -0.0539
76. ATAGGCGC  -0.0551
77. CCATTGAC  -0.0593
78. GACACGAA  -0.0595
79. AAGGCTTA  -0.0599
80. GGTGAGAC  -0.062
81. ACGCTTGA  -0.0657
82. CTTTTCCA  -0.066
83. CCCCGTCA  -0.0663
84. GCACGCAA  -0.0708
85. ACACCAGT  -0.0729
86. GCACTGAC  -0.075
87. CCAGCCGC  -0.0764
88. ATTCCAGC  -0.0792
89. AGAGTACG  -0.08
90. CGCCTACA  -0.0806
91. ATCCGTGC  -0.0813
92. ATGGAGTG  -0.0816
93. GAACTCAC  -0.0819
94. AGAAGGAT  -0.0825
95. AGAACCCA  -0.0864
96. CGCGCAAC  -0.0927
97. CTTCGTGC  -0.0984
98. CACATCAA  -0.101
99. CTCAATCC  -0.101
100. AAGTGAAG  -0.102
101. AGTCGATC  -0.105
102. AAATGGGG  -0.107
103. GGCATTAC  -0.108
104. ATCGTGAG  -0.109
105. ACTCCGCT  -0.112
106. ACGCCAGC  -0.115
107. TAGCCTCA  -0.117
108. TCCGTTCA  -0.122
109. CGATTCAG  -0.128
110. ATGGGACG  -0.134
111. GAGATCTC  -0.136
112. CTACAGAG  -0.143
113. ATCGGAGC  -0.143
114. CCCAGACA  -0.144
115. CCGAGCTA  -0.15
116. AGCAGGCA  -0.152
117. CAAGGTCG  -0.153
118. CGAAGGAA  -0.155
119. GGCTATGA  -0.155
120. GCATGCAC  -0.161
121. GCCCTGGA  -0.166
122. GCCGTGCC  -0.167
123. CGGATGCA  -0.169
124. ATGGTGGC  -0.17
125. ACCCCATA  -0.17
126. AGCTCTAG  -0.173
127. GTCCTCTA  -0.173
128. CATGCTCG  -0.173
129. CGTGCCTA  -0.175
130. CACCGTGC  -0.175
131. CAAAGGGC  -0.176
132. CGGCGGAA  -0.176
133. AACCCTTC  -0.178
134. CATGGGTC  -0.179
135. AAGGCCGT  -0.185
136. CGCTTGCA  -0.187
137. CCCGATGC  -0.187
138. GCTGTCTA  -0.193
139. GACTCCCA  -0.195
140. CCACGAGA  -0.207
141. CGCCAGGC  -0.209
142. CTCTGACA  -0.209
143. ACGTAGCG  -0.212
144. GAATCAAC  -0.215
145. CTTGAAGC  -0.22
146. ATCCCCCC  -0.221
147. AGGCGCCG  -0.225
148. AGGAAAGC  -0.233
149. GGAACGGA  -0.238
150. CGCCGCAG  -0.24
151. CTCAGGCC  -0.241
152. CTCCCTCA  -0.243
153. CACGAGGA  -0.245
154. CACTGAAG  -0.245
155. GGGTCGTA  -0.252
156. CTTCAGCC  -0.254
157. ATGGGCCC  -0.256
158. GGCGACTA  -0.259
159. CGAATCTC  -0.26
160. CCTTGAAG  -0.261
161. CCGCAGCA  -0.264
162. CTGCGTCC  -0.266
163. ACCCCTAG  -0.269
164. GAGGGACA  -0.27
165. CTCCCCTA  -0.28
166. CGCCTAGC  -0.287
167. GAGGACCA  -0.315
168. AGGGCGTC  -0.316
169. CCCGGACC  -0.337
170. CGGGCCTC  -0.34
171. AGTCCTCC  -0.383
172. AGGCTCGC  -0.403
